Experimental data as given in PubChem BioAssay AID445 (National Center for Advancing Translational Sciences (NCATS), 2006).
Screen size: about 110,000 compounds; about 40 (0.04%) were called active. The shares of active, inactive and inconclusive entries below differ from those in the screen. Calls follow the shape of the dose curve; as a rule, active = well fitted curve in the direction sought with a large enough effect in the signal ratio (not every such curve was filed as active); inconclusive = small, poorly fitted or top-dose-only effect, or a change in a side signal; inactive = flat fitted curve, though single readings scatter; the % refers to the signal ratio. A potency beside an inconclusive call is a rough fit, not a confirmed value.
Potency is read from the fitted curve at half-maximal effect.

Assay: IkB Signaling;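 as to IkBa stabilization activation: 0% = basal untreated cells and 100% = reference inhibitor full response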
Details: ABC-DLBCL IkBa-CBG/CBR dual luciferase ratio (green luciferase fused to IkBa over red control in OCI-Ly3 lymphoma cells), 4 h; IkBa stabilization activation: at 57.1 µM (top of the series), scaled: untreated 0%, proteasome inhibitor 100% unless noted
Procedure, shortened: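 Luminescence ratio of IκBα-fused green versus native red beetle luciferase in OCI-Ly3 cells, 4 h post-doxycycline with compound; red signal alone, scaled from basal (0%) to zero light (-100%), flagged nonspecific or cytotoxic effects.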
With `COC(=O)C1=C(N)Oc2cc(C)n(Cc3ccco3)c(=O)c2C1c1cccc(Cl)c1` (configuration not stated) the IkBa stabilization activation was inconclusive: -2.2% [signal inhibitor].
With `Cc1ccccc1-n1cc(-c2ccccc2)nc1SCC(=O)Nc1ccc(F)cc1` the IkBa stabilization activation was inconclusive: 6.86% [signal inhibitor].
With `CCOC(=O)c1cccc(NC2c3ccccc3C(=O)N2Cc2ccco2)c1` (configuration not stated) the IkBa stabilization activation was inconclusive: 3.96% [signal inhibitor].
With `COc1ccc(C2C(=O)N(C3CCC(C)CC3)CC(=O)N2Cc2ccccc2Cl)cc1OC` (configuration not stated) the IkBa stabilization activation was inconclusive: 0.672% [signal inhibitor].
For `COc1ccc(-c2nnc(SCC(=O)Nc3sc4c(c3C#N)CCC4)n2CC2CCCO2)cc1` (configuration not stated), the IkBa stabilization activation was inconclusive: 1.39% [signal inhibitor].
With `Cc1noc(Cn2c(=O)c3ccccc3n(CC(=O)Nc3cccc(Cl)c3C)c2=O)n1` the IkBa stabilization activation was inconclusive: 1.39% [signal inhibitor].
With `COCC(=O)N1CCC2(CC1)CN(C(c1ccccc1)c1ccccc1)C2` the IkBa stabilization activation was inactive: 3.26% [at 11.4 µM, scaled: untreated 0%, proteasome inhibitor 100%].
With `COc1cccc(NC(=O)CSc2nc3n[nH]c(C)c3c(=N)n2-c2cccc(OC)c2)c1` the IkBa stabilization activation was inconclusive: 1.06% [signal inhibitor].
In the case of `Cc1cc(C(=O)OCC(=O)Nc2cc(C(F)(F)F)ccc2N2CCOCC2)c(C)o1`, the IkBa stabilization activation is reported as inconclusive: 2.47% [signal inhibitor].
With `C=CCn1c(C)cc(C(=O)CSc2nc3ccccc3o2)c1C` the IkBa stabilization activation was inconclusive: 4.11% [signal inhibitor].
For `C=CCn1c(SCC(=O)c2ccc(CNC(C)=O)o2)nc2scc(C3CC3)c2c1=O`, the “IkBa stabilization activation” value was inactive: 0.4%.
In the case of `O=C(c1cnc(N2CCCCC2)c2ccccc12)N1CCN(c2ccccc2F)CC1`, the IkBa stabilization activation is reported as inconclusive: -2% [signal inhibitor].
With `CN(C)c1nc(N)nc(Nc2ccccc2C#N)n1` the Potency was inconclusive: 3.16 µM [signal inhibitor, full curve].
With `Oc1ccccc1NCC(O)Cn1ccc2ccccc21` (configuration not stated) the Potency was inconclusive: 20 µM [signal inhibitor, partial curve].
With `COc1ccc(CNC(=O)CCc2c(C)nn(-c3ccc(N4CCCCC4)nn3)c2C)c(OC)c1` the IkBa stabilization activation was inconclusive: -0.643% [signal inhibitor].
With `CCOC(=O)COc1ccc(S(=O)(=O)Nc2ccc3c(c2)OCCO3)cc1` the IkBa stabilization activation was inconclusive: 12.8% [signal inhibitor].
With `Cc1ccc(-n2ncc(C(=O)NCCCN3CCN(c4cccc(Cl)c4)CC3)c2-n2cccc2)cc1` the IkBa stabilization activation was inconclusive: -3.55% [signal inhibitor].
